Laboratory results: the supplement of paper PMC3334620
In all, about 33,000 sequences were measured (“E-score (-0.5 to 0.5)”: median about -0.035, highest 2% from about 0.34 on). This is one part of the list.

biological target: T1, Mot3 (UniProt P54785); test: PBM E-score (8-mer binding enrichment) (E-score (-0.5 to 0.5)); higher = stronger / more preferred TF binding; most listed sequences are background and not binding sites; conditions: protein concentration: 200 nM; construct: GST-full length
T1 sequence: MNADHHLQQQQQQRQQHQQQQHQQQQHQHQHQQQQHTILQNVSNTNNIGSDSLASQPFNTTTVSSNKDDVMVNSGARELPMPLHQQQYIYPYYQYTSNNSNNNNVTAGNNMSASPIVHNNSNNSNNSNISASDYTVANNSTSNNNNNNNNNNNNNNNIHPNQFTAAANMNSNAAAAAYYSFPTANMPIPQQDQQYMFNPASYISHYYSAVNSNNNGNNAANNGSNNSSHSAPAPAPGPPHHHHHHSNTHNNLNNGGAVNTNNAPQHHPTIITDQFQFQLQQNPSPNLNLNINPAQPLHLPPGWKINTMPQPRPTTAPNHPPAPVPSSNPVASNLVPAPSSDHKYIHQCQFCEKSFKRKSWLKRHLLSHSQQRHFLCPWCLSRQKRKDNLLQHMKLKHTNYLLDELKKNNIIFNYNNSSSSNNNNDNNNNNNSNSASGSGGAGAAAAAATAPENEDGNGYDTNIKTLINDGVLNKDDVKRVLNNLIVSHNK
Method in brief: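 Universal all-10-mer Agilent arrays, fresh or stripped once, were converted to double-stranded form by primer extension. GST-tagged yeast transcription factors from PURExpress in vitro transcription/translation, full-length or DNA-binding domain only, were applied at about 100-200 nM and detected with fluorescent anti-GST. After masliner normalisation, the Universal PBM Analysis Suite scored each ungapped eight-base word together with its reverse complement by E-score.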

Sequence | PBM E-score
ATTTTTGC | 0.0577
AAGAGAGT | -0.0969
AACCAGCA | -0.0345
CTAGAGCC | -0.0763
CCACAACC | -0.0893
CGGAAAAG | -0.213
GGTACAGA | 0.15
CAAGATAG | -0.0788
CACTCTCC | -0.141
CCTTAATA | 0.277
GATGCATA | -0.153
CCCCCCCA | -0.429
ACTGGTGA | -0.071
GACCGCGA | -0.365
CCACTCAC | -0.138
CATCCTGC | -0.144
GCGATTAC | 0.0831
ACAGGACC | -0.057
CCTCCCGC | -0.23
AGGGATCC | -0.223
ATGTCGCG | 0.00468
CGAGAACG | -0.206
GGTATCAA | -0.062
AGCACGAG | -0.154
AATGAATT | 0.112

Sequence | PBM E-score
GAAGAACC | -0.157
GCTGACCA | -0.361
GCGAGACC | -0.288
ACTTGTTC | 0.162
GAAGCGTC | -0.0399
GAACGGGC | -0.257
CCTCCTCG | -0.355
AGTCTGCG | -0.148
CAGGTACC | 0.434
AGTGGGTA | -0.108
GTTGGGGA | -0.12
CACATGGG | -0.0126
AGCATCCC | -0.222
AGACCGAT | -0.0276
TCTCCGCA | -0.103
CACGCAGA | 0.0829
AAAAACGA | 0.145
TATGGGAA | -0.212
ACTACAAC | 0.102
GGTAATGA | 0.0343
AAGGATGG | -0.131
GGGCTGCA | -0.312
GGCTGTAC | -0.0498
ATCGACCC | -0.0926
AAATGTTA | 0.288

Sequence | PBM E-score
CAAATTAG | -0.0114
GTCTCTCA | -0.0805
ATAATACC | 0.0179
CCTGGAAC | 0.0951
GGGTGCAC | -0.0936
CCAGATCA | 0.163
CGTCCGCC | -0.187
GATGCGGA | -0.105
ATCGTCGA | -0.081
GCTAGAAC | 0.016
CCTGGCCA | -0.161
AGGTCAAC | -0.00356
GCCAAAAC | 0.0697
CACACCCG | -0.0276
TAATAAAA | 0.244
CTCAGCCA | -0.183
AACGCTAT | -0.166
ACGATCCT | -0.169
CAGGGCCA | -0.335
CTGATTTC | -0.145
TAGTCGCA | -0.0514
AAGAGGGC | -0.117
ACTGTCCC | -0.216
CGAATGCG | -0.0144
AGCCAGAA | -0.0671

Sequence | PBM E-score
CCTCGGAG | -0.0162
GCAATGGC | -0.308
TCAAGGCA | 0.458
AACTGAAG | 0.00993
AGACAGTC | -0.135
CTCATTTA | 0.0667
CCAGGAAC | 0.406
ATGCGGGG | -0.23
CAATATTC | -0.175
AACGGATT | 0.0237
AGGTCCAA | -0.173
CAGGATAA | 0.0585
AGCAATCC | -0.242
TACAAAGA | 0.233
CCGGACCG | -0.264
ACCGATAG | -0.251
CATCAGAG | -0.139
CCGGCGGA | -0.24
GCTTGAAC | 0.102
TACTGTGA | -0.0621
ACTGGGCG | -0.198
ACGGTGCA | 0.184
CTCGGGAC | -0.235
CAAGTGCC | 0.27
GGGACACC | -0.229

Sequence | PBM E-score
ACGTTGTA | 0.256
CCAAAGAC | -0.109
AATGAGAT | 0.126
AAGCGTAG | -0.16
ATCGCCAG | -0.289
ATAACCAG | -0.106
TCGCCGAA | -0.167
CGTGTTTC | 0.106
TCCTCCGA | -0.242
ATATCAGA | 0.0536
GTAGATAA | 0.14
GACGCCCC | -0.19
ATTCTCTA | -0.199
CCAGATGC | -0.0578
ACACAAGT | 0.164
TAAGTCCA | -0.058
CCACACAG | -0.0906
GCCATATA | 0.119
ATACATAA | 0.308
GCGGGATA | -0.154
AGGAGACG | -0.0922
CGCAAGAC | -0.221
AGTTACCA | 0.0718
AGCATGGC | 0.0473
CATGTGCA | 0.0911

Sequence | PBM E-score
ACGGAGGG | -0.169
CCTGTACA | 0.335
GGTAAATA | 0.0914
CCAATTCA | 0.0279
CTTAAGTA | -0.0145
ATGCAGGA | 0.0312
GTTACGTA | 0.177
CATAGAAA | 0.111
GCTAGACC | -0.284
CAGCGACG | -0.0741
AACGATGT | 0.254
CAGGCATG | 0.358
AGCGATCC | -0.246
GCTCTGGA | -0.0935
AGCTCCCT | -0.0912
GCACGAGA | -0.136
GCCGGTTA | -0.104
AGCTCCAG | -0.196
CCGCGATA | -0.272
CATTTTAA | 0.116
CATCATGG | -0.316
GCTTTTGA | -0.0531
CCATCGGC | -0.207
CTCTTCAC | 0.047
AATAATCA | 0.0478

Sequence | PBM E-score
CAATTAGA | 0.0319
CACGTGAC | 0.0586
CAACCAGG | 0.0692
ATCTACGA | 0.00719
AAGTTATG | 0.171
ACTGGGAA | -0.0465
GAAGTATC | -0.0457
ACGTGAGT | 0.0732
CCGGTAGA | -0.175
AATCGCTC | -0.23
ACCTATAT | 0.183
TACGACCA | 0.0497
AGAGCACA | -0.00184
ACTCGGAT | 0.0488
AAGAGCAG | -0.164
GGTTTATA | -0.0105
GATCGTCA | 0.106
CCCCGCGG | -0.0522
AGGACGCA | -0.15
GGTCGCTA | -0.168
ACCACTGC | -0.0793
TCGCTCCA | -0.146
GCACAACA | 0.35
AAGCTATG | -0.133
AGAGAACT | -0.0965

Sequence | PBM E-score
ACTTGGTG | -0.198
ACAGCGTG | 0.128
CCGGTGTC | -0.0319
GACTTCAA | -0.134
CAAGTCGA | -0.156
AGCCCGAA | -0.219
CGCACGAA | 0.0525
ACTTCACG | 0.053
ACGATAGC | -0.092
AAACACCG | 0.175
AGCGACGC | -0.109
ACTTTAGA | 0.0338
CAGTCTGC | -0.223
AGGGACAC | -0.0257
GGGGCTTA | -0.33
CACAGATA | -0.0324
ACGCATTC | 0.146
AAAAGCAT | 0.102
AATTCCGC | -0.176
GGACCATA | -0.176
GATTCAAC | 0.00876
GTGCGGAA | -0.144
ATGACCAC | 0.0115
GAATCCAC | 0.00874
CATATCCG | -0.0755

Sequence | PBM E-score
CGTGCAAG | -0.0134
AGCTCTAT | -0.161
AGGTAAAC | 0.302
ATATAGCG | -0.13
CTCCGTCC | -0.262
AGCACCAT | -0.192
CAACGTGC | 0.156
ACCTATTG | 0.0711
GGAATCCC | -0.247
GGTTATTA | 0.0656
ATCACCCA | -0.21
GTACGACA | 0.178
GGATCACC | -0.202
CTTAATTC | 0.081
GACAGCGA | -0.349
ACGAATAT | 0.0335
CGCTTAGC | -0.259
CCGTGGCA | -0.149
AGCACCCG | -0.356
